Test results reported in the supplement of paper PMC4967469.
IC50 is the fitted dose that halves viability relative to control wells, and lower means more sensitive; where the fit passes the top or lowest dose, that dose stands as a limit. The AUC spans the tested range (256-fold, ending at the top dose) of the same fit; the more sensitive the line, the further below 1. A top dose marked as inferred was calculated from the reported fits.

Assays:
Assay in all cases: Viability of human cancer cell lines after 72 h of drug (GDSC screen)
KIN001-266 = compound: CCN1CCC(n2cc(CNc3cc(Cl)c4ncc(C#N)c(Nc5ccc(F)c(Cl)c5)c4c3)nn2)CC1 [KIN001-266]; conditions: top dose 20 µM; top dose inferred
Procedure: (§1)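 Human cancer cell lines in 384-well plates, medium with 10% serum, drug for 72 h over a 256-fold dose range (nine 2-fold or five 4-fold steps up to the top dose). Adherent lines were fixed and stained with the nucleic acid dye Syto60, suspension lines read with resazurin; signal relative to control wells, capped at 0 and 100%. One two-parameter sigmoid per drug and line, fitted in a mixed model over all curves with the slope shared within a line.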

QL-XII-47 = compound: C=CC(=O)N1CCc2ccc(-n3c(=O)ccc4cnc5ccc(-c6cnn(C)c6)cc5c43)cc21 [QL-XII-47]; conditions: top dose 10.24 µM; top dose inferred
Procedure: as §1

CCT007093 = compound: O=C1/C(=C/c2cccs2)CC/C1=C\c1cccs1 [CCT007093]; conditions: top dose 6.6 µM; top dose inferred
Procedure: as §1

BAY 61-3606 = compound: COc1ccc(-c2cc3nccn3c(Nc3ncccc3C(N)=O)n2)cc1OC [BAY 61-3606]; conditions: top dose 8 µM; top dose inferred
Procedure: as §1

| Cell Line | AUC (KIN001-266) | IC50 (KIN001-266) [µM] | AUC (QL-XII-47) | IC50 (QL-XII-47) [µM] | AUC (CCT007093) | IC50 (CCT007093) [µM] | AUC (BAY 61-3606) | IC50 (BAY 61-3606) [µM] |
| --- | --- | --- | --- | --- | --- | --- | --- | --- |
| IST-MEL1 (melanoma, adherent) | 0.842 | 18.2 | 0.779 | 5.03 | 0.955 | > 6.6 | 0.798 | 4.66 |
| MOLP-8 (myeloma, suspension) | 0.822 | 11.1 | 0.329 | 0.219 | 0.978 | > 6.6 | 0.593 | 0.888 |
| NCI-H1876 (small cell lung carcinoma, adherent) | 0.985 | > 20 | 0.85 | 7.9 | 0.987 | > 6.6 | 0.928 | > 8 |
| MN-60 (B-cell leukaemia, suspension) | 0.907 | > 20 | 0.707 | 2.52 | 0.988 | > 6.6 | 0.881 | > 8 |
| T47D (breast, adherent) | 0.841 | > 20 | 0.622 | 1.66 | 0.895 | > 6.6 | 0.915 | > 8 |
| CAL-54 (kidney, adherent) | 0.975 | > 20 | 0.83 | 7.74 | 0.982 | > 6.6 | 0.915 | > 8 |
| RERF-LC-MS (lung adenocarcinoma, adherent) | 0.977 | > 20 | 0.889 | > 10.2 | 0.959 | > 6.6 | 0.979 | > 8 |
| SK-ES-1 (Ewing sarcoma, semi-adherent) | 0.898 | > 20 | 0.854 | 8.91 | 0.977 | > 6.6 | 0.636 | 1.22 |
| NCI-H1573 (lung adenocarcinoma, adherent) | 0.977 | > 20 | 0.968 | > 10.2 | 0.991 | > 6.6 | 0.949 | > 8 |
| HCC1569 (breast, adherent) | 0.958 | > 20 | 0.714 | 3.21 | 0.932 | > 6.6 | 0.825 | 7.11 |
| NCI-H1435 (lung adenocarcinoma, semi-adherent) | 0.929 | > 20 | 0.987 | > 10.2 | 0.992 | > 6.6 | 0.983 | > 8 |
| LP-1 (myeloma, suspension) | 0.88 | 14.7 | 0.398 | 0.353 | 0.992 | > 6.6 | 0.831 | 3.93 |
| NCI-H460 (large cell lung carcinoma, adherent) | 0.885 | 18.2 | 0.988 | > 10.2 | 0.949 | > 6.6 | 0.719 | 1.94 |
| NCI-H1355 (lung adenocarcinoma, adherent) | 0.962 | > 20 | 0.849 | > 10.2 | 0.953 | > 6.6 | 0.751 | 3.72 |
| KOPN-8 (B-cell leukaemia, suspension) | 0.802 | 8.25 | 0.573 | 0.983 | 0.99 | > 6.6 | 0.647 | 1.2 |
| Hs939-T (melanoma, adherent) | 0.852 | 17.8 | 0.949 | > 10.2 | 0.986 | > 6.6 | 0.939 | > 8 |

| Cell Line | AUC (KIN001-266) | IC50 (KIN001-266) [µM] | AUC (QL-XII-47) | IC50 (QL-XII-47) [µM] | AUC (CCT007093) | IC50 (CCT007093) [µM] | AUC (BAY 61-3606) | IC50 (BAY 61-3606) [µM] |
| --- | --- | --- | --- | --- | --- | --- | --- | --- |
| JEG-3 (urogenital system, adherent) | 0.985 | > 20 | 0.98 | > 10.2 | 0.98 | > 6.6 | 0.97 | > 8 |
| MDA-MB-175-VII (breast, adherent) | 0.943 | > 20 | 0.626 | 1.48 | 0.983 | > 6.6 | 0.92 | > 8 |
| KYSE-50 (oesophagus, adherent) | 0.894 | > 20 | 0.461 | 0.506 | 0.96 | > 6.6 | 0.806 | 3.65 |
| NCI-H1299 (large cell lung carcinoma, adherent) | 0.941 | > 20 | 0.877 | > 10.2 | 0.976 | > 6.6 | 0.856 | > 8 |
| RERF-LC-KJ (lung adenocarcinoma, adherent) | 0.976 | > 20 | 0.812 | 5.68 | 0.955 | > 6.6 | 0.866 | 7.46 |
| TE-11 (oesophagus, adherent) | 0.988 | > 20 | 0.92 | > 10.2 | 0.983 | > 6.6 | 0.968 | > 8 |
| HCC1187 (breast, suspension) | 0.965 | > 20 | 0.843 | 6.73 | 0.934 | > 6.6 | 0.907 | > 8 |
| BHY (head and neck, adherent) | 0.793 | 9.13 | 0.343 | 0.234 | 0.984 | > 6.6 | 0.765 | 2.93 |
| NKM-1 (acute myeloid leukaemia, suspension) | 0.829 | 13 | 0.462 | 0.502 | 0.973 | > 6.6 | 0.615 | 1.05 |
| KYSE-220 (oesophagus, adherent) | 0.863 | 18.9 | 0.779 | 4.42 | 0.946 | > 6.6 | 0.918 | > 8 |
| SNU-398 (liver, adherent) | 0.869 | 19.8 | 0.407 | 0.353 | 0.985 | > 6.6 | 0.644 | 1.28 |
| SCC-9 (head and neck, adherent) | 0.794 | 12.2 | 0.467 | 0.509 | 0.946 | > 6.6 | 0.972 | > 8 |
| RVH-421 (melanoma, adherent) | 0.765 | 10 | 0.776 | 5.68 | 0.962 | > 6.6 | 0.934 | > 8 |
| IMR-5 (neuroblastoma, adherent) | 0.884 | 15.8 | 0.437 | 0.444 | 0.984 | > 6.6 | 0.862 | 5.15 |
| CP50-MEL-B (melanoma, adherent) | 0.836 | 13 | 0.985 | > 10.2 | 0.981 | > 6.6 | 0.896 | > 8 |
